Measurements reported in PMC4336329 (PLoS ONE, 2015).
About 14,000 (4.5%) of roughly 310,000 compounds showed an effect of 50% or more. The effect is printed as a negative number. The list shows a part of the results.

target: human ether-à-go-go-related gene (hERG) potassium channel (human, UniProt Q12809); test: primary screen, population patch clamp on CHO cells stably expressing hERG
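Note: peak tail current of the secondary pulse compared with the same well before compound.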

Chain of human ether-à-go-go-related gene (hERG) potassium channel (Q12809 whole entry, looked up): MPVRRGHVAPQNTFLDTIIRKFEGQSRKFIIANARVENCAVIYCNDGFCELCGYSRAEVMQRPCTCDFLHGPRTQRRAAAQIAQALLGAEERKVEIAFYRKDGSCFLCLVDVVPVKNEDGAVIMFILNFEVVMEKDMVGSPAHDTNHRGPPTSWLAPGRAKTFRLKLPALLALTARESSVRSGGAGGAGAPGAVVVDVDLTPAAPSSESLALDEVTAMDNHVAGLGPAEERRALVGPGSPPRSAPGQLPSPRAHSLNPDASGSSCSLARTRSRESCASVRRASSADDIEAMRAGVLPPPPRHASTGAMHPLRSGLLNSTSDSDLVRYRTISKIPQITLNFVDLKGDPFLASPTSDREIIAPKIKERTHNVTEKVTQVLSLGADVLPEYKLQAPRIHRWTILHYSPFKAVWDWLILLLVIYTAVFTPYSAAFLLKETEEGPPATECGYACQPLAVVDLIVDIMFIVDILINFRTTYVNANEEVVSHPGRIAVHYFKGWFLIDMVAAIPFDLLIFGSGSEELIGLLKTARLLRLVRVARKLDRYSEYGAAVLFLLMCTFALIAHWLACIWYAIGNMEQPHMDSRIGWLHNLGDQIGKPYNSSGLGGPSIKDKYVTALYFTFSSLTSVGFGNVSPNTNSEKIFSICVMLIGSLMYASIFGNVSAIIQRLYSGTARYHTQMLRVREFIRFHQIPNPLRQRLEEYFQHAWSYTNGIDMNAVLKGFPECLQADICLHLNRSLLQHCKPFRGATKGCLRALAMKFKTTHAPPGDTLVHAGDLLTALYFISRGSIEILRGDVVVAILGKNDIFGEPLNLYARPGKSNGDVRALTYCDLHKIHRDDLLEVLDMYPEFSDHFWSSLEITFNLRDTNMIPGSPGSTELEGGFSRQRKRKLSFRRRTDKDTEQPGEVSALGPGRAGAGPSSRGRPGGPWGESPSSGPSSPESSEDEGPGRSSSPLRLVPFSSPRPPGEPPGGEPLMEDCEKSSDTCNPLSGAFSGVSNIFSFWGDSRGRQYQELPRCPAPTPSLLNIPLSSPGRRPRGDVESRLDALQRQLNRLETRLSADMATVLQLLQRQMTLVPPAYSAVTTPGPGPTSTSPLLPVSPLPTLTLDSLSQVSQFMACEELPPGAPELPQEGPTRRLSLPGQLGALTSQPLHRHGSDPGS

Structure (SMILES)	hERG current change (%, negative = inhibition) at 10uM
CC(NC(=O)CCc1nnc(-c2ccccc2)o1)c1ccccc1 (stereo not shown)	5.21%
NNC(=O)c1ccc(COc2ccc3ccccc3c2)o1	9.74%
C=CCNC(=O)c1ccc2c(c1)N(CC)C(=O)c1ccccc1S2	-10.7%
NC(=O)COC(=O)c1ccc(-c2ccc(O)cc2)cc1	8.82%
CCCCN(c1ccccc1)S(=O)(=O)N(C)C	7.53%
Cc1cc(C)c2nc(NNC(=O)c3ccc(S(=O)(=O)N4CC(C)CC(C)C4)cc3)sc2c1 (stereo not shown)	7.37%
CC(C)C(=O)NCCn1ccc2ccccc21	-13.4%
CCCOC(=O)c1ccc(-n2nnnc2SCC(=O)N2CCCCC2)cc1	-3.98%
Cc1c(OC(C)C(=O)NCC2CCC(C(=O)O)CC2)ccc2c(-c3ccccc3)cc(=O)oc12 (stereo not shown)	8%
CC(C)(C)c1ccccc1NC(=S)NCc1ccccc1	6.65%
CCNc1nc(OC)nc(N2CCC(Cc3ccccc3)CC2)n1	-1.13%
Cc1ccccc1C(=O)N1CCC(C(=O)Nc2ccc3c(c2)OCO3)CC1	3.97%
Cn1ccnc1Sc1nc(Nc2cccc(Cl)c2)nc(N2CCOCC2)n1	-36.7%
O=S(=O)(Cc1cc(NCc2ccccc2)nc(-c2ccncc2)n1)c1ccccc1	20.3%
CCC(=O)N(CCC(c1ccccc1)c1ccco1)Cc1cccs1 (stereo not shown)	-15.9%
Cc1cc(C)cc(C(=O)NC(CC(N)=O)c2ccc(NC3CCCCCCC3)c([N+](=O)[O-])c2)c1 (stereo not shown)	1.06%
COc1ccc(Nc2cc(C)nc(N3CCOCC3)n2)cc1	-12.2%
CCN(CC)CCOC(=O)c1ccc(NC(=O)CCCN2C(=O)/C(=C\c3cccs3)SC2=S)cc1	-1.35%
CCOC(=O)c1cnc2c(OC)cccc2c1NCc1cccnc1	-72.2%
CCOC(=O)CSc1nc2c([nH]c3ccccc32)c(=O)n1C	16.9%
CCN(CC)C(=O)CSC1=C(C#N)C(c2cccs2)C=C(C)N1 (stereo not shown)	14.1%
Cc1ccc(C)c(N2CCN(C(=O)CCNC(=O)Cn3ccc4ccccc4c3=O)CC2)c1	-3.39%

Structure (SMILES)	hERG current change (%, negative = inhibition) at 10uM
CCN(C(=O)CN1C(=O)S/C(=C\c2ccc(Cl)cc2)C1=O)C1CCS(=O)(=O)C1 (stereo not shown)	-9.49%
CCOc1ccc(CCNC(=O)CCc2nnc3ccc(N4CCCCC4)nn23)cc1OCC	-18.4%
CCN(CC(=O)N1CCCC1)S(=O)(=O)c1ccc(OC)cc1	19.8%
O=C(Nc1ccc(F)cc1)c1cc(Cl)sc1Cl	14.5%
CC(=O)c1cccc(NC(=O)CSc2nc(=O)n(CCN3CCOCC3)c3c2CCCC3)c1	-11.2%
O=C(Nc1ccc(-c2nc3ccccc3o2)cc1)c1cc(-n2cnnc2)ccc1Cl	-0.947%
Cc1nnsc1C(=O)Nc1ccc(Cl)cc1Cl	7.78%
O=c1cc(CO)oc(C(Nc2cccc(C(F)(F)F)c2)c2ccccn2)c1O (stereo not shown)	6.7%
CC(C)(CCl)C(=O)Nc1ccc(Sc2ccc(F)cc2)cc1	-11.6%
O=C(Nc1ccc(F)cc1)C1CCCN(S(=O)(=O)c2cccc3nonc23)C1 (stereo not shown)	5.63%
N#CC1=C(O)C(c2ccccc2)n2c1nc(=O)c1ccccc12 (stereo not shown)	-16.9%
CC(C)(C)c1ccc(OCCN2CCCC2)cc1	-20.6%
O=S(=O)(CC(CN1CCCC1)N1CCCC1)c1ccc2ccccc2c1 (stereo not shown)	-32.7%
CC(C)Cc1nnc(NC(=O)CN2C(=O)C3CCCCC3C2=O)s1 (stereo not shown)	-4.12%
COC(=O)c1cccc(NC(=O)CN(c2ccc3c(c2)OCO3)S(C)(=O)=O)c1C	16.4%
COc1ccc(C2=NS(=O)(=O)N(C)C(C(=O)N(C)Cc3ccccc3)=C2)cc1OC	-6.75%
C=CCN1C(=O)/C(=C/c2ccc(OC)cc2)S/C1=N/c1nccs1	13.4%
O=C(CSc1ncccn1)NC(=O)NCc1ccco1	-43.9%
CC1CC(OP(O)(=S)c2ccc(N(C)C)cc2NC(=O)c2cccs2)CC(C)(C)C1 (stereo not shown)	8.37%
COC(=O)c1oc2nc(C)cc(C)c2c1N	-4.33%
CCc1nnc(NC(=O)CN2CCN(c3ccccc3OC)CC2)s1.Cl	-17.6%
O=C(NCc1ccccc1)C1CCN(S(=O)(=O)c2cccc3cccnc23)CC1	-13.8%

Structure (SMILES)	hERG current change (%, negative = inhibition) at 10uM
CC1CC(=O)c2cn3c(nc2C1)nc1ccccc13 (stereo not shown)	-24.3%
O=C(NCCN1CCCCCC1)C1CC(=O)N(CCc2ccccc2)C1 (stereo not shown)	3.04%
CC12CN3CC(=O)N4CC5(C)CN(CC(C)(C4)C5=O)C(=O)CN(C1)CC(C)(C3)C2=O	17.6%
Cc1ccc(OCCNC(=O)c2cc(-n3cnnc3)ccc2Cl)cc1C	-15%
CC(=O)Nc1ccc(NS(=O)(=O)c2cc(C)sc2C)cc1	-10.6%
CCOC(=O)C1CCN(C(=O)COC(=O)c2cccc(F)c2)CC1	11.1%
O=C(NCC1(c2ccccc2)CCCC1)c1cccc(Br)c1	4.39%
COc1ccc(-c2noc(CN(C(=O)c3ccoc3C)C(C)C)n2)cc1	9.67%
Brc1c(CSc2nc3ccccc3o2)nc2ncccn12	-51.8%
CCCn1c2ccc(F)cc2c2nnc(SCCN3CCOCC3)nc21	-35.8%
O=C(NCc1ccc(Cl)cc1)C1CCCN(c2cnccn2)C1 (stereo not shown)	-66.5%
CCCOP(=O)(c1ccc(N(C)C)cc1)C(O)c1cccnc1 (stereo not shown)	-5.24%
O=C(CN1CCOCC1)Nc1ncc(Cc2cccc(Cl)c2Cl)s1	-51.4%
Cc1nc2ccccc2n1S(=O)(=O)c1ccc(S(=O)(=O)N2CCCCCC2)cc1	16.8%
COc1cc2[nH]c3c(=O)n4c(nc3c2cc1OC)SCCC4	-10.7%
COc1ccccc1CNS(=O)(=O)c1cc(CN2C(=O)c3cccnc3C2=O)ccc1OC	-19.4%
Cc1c(C(=O)O)nnn1-c1nonc1N	27.1%
Cc1nnc(N/N=C/c2cc(C)n(-c3ccc(F)cc3)c2C)n1N.Cl	2.95%
COC(=O)c1cc(Cl)c(NS(=O)(=O)c2ccccc2)cc1OC	15.4%
Cc1ccc(-c2nn(-c3ccccc3)cc2C(=O)N2CCN(c3ccccn3)CC2)cc1	3.16%
CN(C)c1ccc(/C=C(\C#N)C(=O)NCc2ccco2)cc1	-10.2%
O=C(NC1CC1)C1=C[C@@H](c2c[nH]c3ccccc23)C[C@@H](OCc2ccc(CO)cc2)O1	-40.2%

Structure (SMILES)	hERG current change (%, negative = inhibition) at 10uM
C/C(=N\NC(=O)Cn1nc(C)c(Br)c1C)c1cccs1	-9.14%
COCCNC(=O)CCc1nc2cccnc2n1Cc1ccc(OC)cc1	8.65%
COc1cc(OC)cc(C(=O)Nc2c(C)nn(-c3ccccc3)c2C)c1	-3.27%
COc1cc(/C=C/c2[nH]c(=O)[nH]c(=O)c2[N+](=O)[O-])cc([N+](=O)[O-])c1O	21.1%
COc1ccc(NC(=O)C(=O)NCC2CCCN2S(=O)(=O)c2cccs2)cc1 (stereo not shown)	5.72%
Cc1n[nH]c(C)c1CCC(=O)N/N=C/c1cccs1	8.73%
CCCCN(C(=O)CSCC(=O)Nc1ccc(C)cc1)c1c(N)n(Cc2ccccc2)c(=O)[nH]c1=O	6.4%
OC(c1nnc(-c2ccccc2)o1)c1cccs1 (stereo not shown)	19.3%
COc1cc(CC(=O)OCC(=O)NC2CC2)cc(OC)c1OC	10.4%
COc1cccc(OC)c1C(=O)Nc1cccc(-n2cnnn2)c1	15.7%
C=C1C[C@@]23CCC4[C@@](C)(CCC[C@@]4(C)C(=O)O)C2CC[C@]1(O)C3 (stereo partly shown)	7.01%
COc1ccc(Cl)cc1S(=O)(=O)Nc1ccncc1	19.3%
Br.COc1ccc(C2=CSC3=NCCN23)cc1	-6.09%
COc1cccc(C(=O)C2CCCN(C/C=C/c3ccccc3OC)C2)c1 (stereo not shown)	-68.4%
CCOC(=O)C1C(c2cccc([N+](=O)[O-])c2)C2C(=O)NN=C2CC1(C)O (stereo not shown)	18.2%
Cc1ccc(-c2csc(Nc3ccc(C(=O)O)cc3)[n+]2Cc2ccccc2)cc1.[Br-]	11%
CCn1ccnc1CN1CCCC(C(=O)c2ccc3cc(OC)ccc3c2)C1 (stereo not shown)	-70.6%
Cc1ccc(NC(=S)N2CCN(C3CCCCC3)CC2)cc1	-13.2%
O=C(Nc1nnc(S(=O)(=O)N2CCOCC2)s1)c1cccc(Br)c1	16.6%
CC1(C)CC(Nc2ccc(Nc3ccccc3)cc2)CC(C)(C)N1	-4.89%
CCOC(=O)C1=C(c2ccccc2)O/C(=C(\C(=O)OC)C(F)(F)F)S1	7.86%
CN1CCN(C(=O)C2=C[C@@H](c3csc4ccccc34)C[C@@H](OCCCCO)O2)CC1	-20.2%
